Results published in paper PMC4336329 (PLoS ONE, 2015).
Screen size: about 310,000 compounds; about 14,000 (4.5%) showed an effect of 50% or more. Effects have a minus sign here. This is one part of the list.

Each compound was assayed against human ether-à-go-go-related gene (hERG) potassium channel (human, UniProt Q12809) (assay: primary screen, population patch clamp on CHO cells stably expressing hERG).
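Also: peak tail current of the secondary pulse compared with the same well before compound.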

human ether-à-go-go-related gene (hERG) potassium channel, sequence (Q12809 whole entry, looked up): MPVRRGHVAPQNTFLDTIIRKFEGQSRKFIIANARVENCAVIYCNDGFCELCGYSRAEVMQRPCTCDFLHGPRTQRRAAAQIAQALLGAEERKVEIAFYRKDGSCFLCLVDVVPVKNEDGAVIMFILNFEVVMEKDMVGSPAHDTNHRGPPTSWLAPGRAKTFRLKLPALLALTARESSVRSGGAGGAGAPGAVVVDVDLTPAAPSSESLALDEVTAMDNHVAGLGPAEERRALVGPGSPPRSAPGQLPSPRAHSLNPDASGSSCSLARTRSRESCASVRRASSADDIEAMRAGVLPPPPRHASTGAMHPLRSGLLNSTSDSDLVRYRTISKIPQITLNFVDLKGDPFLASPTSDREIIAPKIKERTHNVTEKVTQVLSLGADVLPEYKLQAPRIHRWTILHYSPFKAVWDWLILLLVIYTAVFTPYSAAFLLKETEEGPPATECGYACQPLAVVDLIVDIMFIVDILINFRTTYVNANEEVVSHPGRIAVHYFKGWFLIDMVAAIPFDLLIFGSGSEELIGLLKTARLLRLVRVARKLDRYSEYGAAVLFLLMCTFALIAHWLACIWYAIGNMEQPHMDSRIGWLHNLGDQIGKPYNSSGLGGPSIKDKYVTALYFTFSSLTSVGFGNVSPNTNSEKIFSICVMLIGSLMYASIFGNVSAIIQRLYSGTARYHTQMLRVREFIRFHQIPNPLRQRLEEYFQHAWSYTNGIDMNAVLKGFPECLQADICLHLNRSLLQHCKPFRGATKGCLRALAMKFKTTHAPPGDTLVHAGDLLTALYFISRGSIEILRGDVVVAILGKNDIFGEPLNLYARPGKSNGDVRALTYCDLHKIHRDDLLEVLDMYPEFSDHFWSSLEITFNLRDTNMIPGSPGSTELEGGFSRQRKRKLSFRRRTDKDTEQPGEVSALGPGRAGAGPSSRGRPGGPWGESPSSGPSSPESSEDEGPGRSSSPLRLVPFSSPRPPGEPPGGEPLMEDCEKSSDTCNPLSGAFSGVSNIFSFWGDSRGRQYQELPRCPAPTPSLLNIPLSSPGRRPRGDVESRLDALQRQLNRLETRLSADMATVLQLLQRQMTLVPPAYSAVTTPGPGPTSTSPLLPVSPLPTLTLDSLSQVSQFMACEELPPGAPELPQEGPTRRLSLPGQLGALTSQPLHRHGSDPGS

Row | Structure (SMILES) | hERG current change (%, negative = inhibition) at 10uM
1 | O=C(/C=C/c1ccc(Cl)cc1)N1CCN(c2ccc(Cl)cc2[N+](=O)[O-])CC1 | -92.9%
2 | CC(C)(Oc1ccc(Cl)cc1)C(=O)Nc1cccnc1 | -5.92%
3 | CC(C)Nc1nc(-c2cccnc2)nc(-c2ccc(Cl)cc2)c1C#N | 8.35%
4 | Cc1cccc(N2CCN(C(=O)CCn3c(=S)[nH]c4cc5c(cc4c3=O)OCO5)CC2C)c1 (stereo not shown) | 2.44%
5 | CCOc1ccc(NC(=O)C2CCC(CNc3c(N4CCCCC4)c(=O)c3=O)CC2)cc1 (stereo not shown) | 20.5%
6 | Cn1nc(C(C)(C)C)c([N+](=O)[O-])c1C(=O)Nc1ccccc1 | 4.06%
7 | COc1ccc(N2CC(C(=O)N[C@H](C(=O)NC3CCCCC3)C(C)C)CC2=O)cc1 (stereo partly shown) | 14.5%
8 | Cc1nc2[nH]c(=O)c3c(n2n1)NC1=C(C(=O)CC(C)(C)C1)C3c1ccc(F)cc1 (stereo not shown) | 12%
9 | Cc1ccc(C(=O)c2coc3ccc(O)c(Cl)c23)cc1 | -26.5%
10 | CCCc1cc(C(=O)Nc2sc3c(c2C#N)CCC3)no1 | 6.49%
11 | CCCOc1cccc(C(=O)N(Cc2cccs2)C2CCS(=O)(=O)C2)c1 (stereo not shown) | -22.4%
12 | CCN(CC(=O)N1CCOCC1)S(=O)(=O)c1ccccc1 | 13.7%
13 | Cc1cccc(N2CCN(C(c3cccs3)c3nnnn3C(C)(C)C)CC2)c1C (stereo not shown) | -1.77%
14 | COC(=O)C1=C(C)NC(=O)CC1c1cc2c(cc1Br)OCO2 (stereo not shown) | 1.24%
15 | COc1ccc(C)cc1S(=O)(=O)N(C)CC(=O)N1CCCCCC1 | 14.7%
16 | NS(=O)(=O)c1ccc(N2C(=O)C3CC=CCC3C2=O)cc1 (stereo not shown) | 31.6%
17 | CCOc1ccc(-c2cn(S(=O)(=O)c3cccc4nsnc34)nc2N)cc1 | -3.75%
18 | O=C(Cn1nnc(-c2cccs2)n1)NCc1cccs1 | 13.7%
19 | COc1cc(C#N)c(NC(=O)CN2CCC(C(N)=O)CC2)cc1OC | 10.3%
20 | CC1(c2ccc3c(c2)OCCCO3)NC(=O)N(CC(=O)NCCc2ccccc2)C1=O (stereo not shown) | -7.38%
21 | CCCC(=O)Nc1c(-c2cccc(OC)c2)c(=O)c2ccccc2n1C | 10.5%
22 | O=C(N/N=C/c1cccnc1)NC12CC3CC(CC(C3)C1)C2 | -38.1%

Row | Structure (SMILES) | hERG current change (%, negative = inhibition) at 10uM
23 | COc1ccccc1NC(=S)NC(NC(=O)c1ccco1)C(Cl)(Cl)Cl (stereo not shown) | -9.8%
24 | CCOc1ccccc1N(CC(=O)NC1CCCCC1)C(=O)c1nsc(Cl)c1Cl | -7.03%
25 | CCOC(=O)c1cccnc1SCC(=O)N(C)c1ccccc1 | -6.39%
26 | Cc1cc(C(=O)N/N=C2\CCCC(=O)C2)c(C)n1-c1ccccc1 | 9.44%
27 | COc1cccc(COC(=O)c2cc(=O)[nH]c3ccc(S(=O)(=O)N4CCOCC4)cc23)c1OC | -19.2%
28 | COc1ccc(CNC(=O)CN(C(=O)CCC(=O)Nc2nccs2)c2ccccc2C)cc1 | -29.1%
29 | O=C(CSc1nnc(-c2ccncc2)n1CC1CCCO1)NCc1ccccc1 (stereo not shown) | 6.97%
30 | Nc1c(Cl)ncnc1N/N=C/c1ccccn1 | -36.3%
31 | COC(=O)c1ccc(NC(=S)N2CCN(Cc3cccc(C)c3)CC2)cc1 | -14.6%
32 | CNC(=S)N/N=C1\C(=O)c2cccc3cccc1c23 | 11.9%
33 | O=C(CCCn1c(=S)[nH]c2ccccc2c1=O)N1CCOCC1 | -7.78%
34 | O=C(O)CCNC(=O)c1ccc(Br)o1 | 7.01%
35 | CC1=NN(c2ccc(Cl)cc2)C(=O)C1 | 3.77%
36 | CCOc1ccc(N2CC(=O)Nc3ccccc3NCC2=O)cc1 | -2.28%
37 | O=C(NCc1ccncc1)C1CCCCC1 | 1.14%
38 | O=C(Cn1cccc1C(=O)c1ccccc1)NCc1cccc(Cl)c1 | 13.4%
39 | Cc1ccc(C(=O)OCc2nnc(-c3ccccc3)o2)s1 | -7.37%
40 | CCOc1ccc(/C=N/Nc2nc(C)cs2)c(O)c1 | 31.7%
41 | CCc1nnc(NC(=O)Cc2c[nH]c3ccccc23)s1 | 2.92%
42 | O=C(CN1C(=O)NC(c2ccccc2)(c2ccccc2)C1=O)NC1CCCCC1 | -14.8%
43 | CCc1nnc(NS(=O)(=O)c2ccc(N3C(=O)C4CC=C(Cl)CC4C3=O)cc2)s1 (stereo not shown) | 4.84%
44 | Cn1c(COc2ccccc2)nnc1SCC(=O)Nc1ccc(N2CCOCC2)c(Cl)c1 | -4.61%

Row | Structure (SMILES) | hERG current change (%, negative = inhibition) at 10uM
45 | CCC(C)(C(=O)NC1CCCCC1)N(Cc1ccco1)C(=O)CNC(=O)c1ccccc1 (stereo not shown) | -4.05%
46 | CCNC(=S)N/N=C/c1cc(C)n(-c2ccc(Cl)cc2)c1C | 20.5%
47 | Cc1ccc(-c2nc(N)n(S(C)(=O)=O)n2)cc1 | 7.05%
48 | Cc1ccc(OCC(=O)NNC(=O)C2CCN(c3ncnc4sc(C)c(C)c34)CC2)cc1 | -50.7%
49 | CC(=O)C1=C(C)N(Cc2ccccc2)C(=O)N[C@H]1c1cccc(F)c1 | -30.2%
50 | COc1ccc(N2CC(C(=O)Nc3ccccc3N3CCCC3)CC2=O)c(OC)c1 (stereo not shown) | -4.31%
51 | CCOC(=O)c1sc(NC(=O)CCN2C(=O)c3cccc([N+](=O)[O-])c3C2=O)c(C(=O)OCC)c1C | 0.676%
52 | Cc1cccc(-c2cc3nc(C)cc(N4CC(C)CC(C)C4)n3n2)c1 (stereo not shown) | 12.3%
53 | CCCCCCSC1=C(C#N)C(c2ccc(O)cc2)CC(=O)N1 (stereo not shown) | -4.91%
54 | COC(=O)COc1cccc2c(=O)n(CC(=O)NCCc3ccccc3)ccc12 | -13.8%
55 | O=C1CC(c2ccco2)CC(O)=C1C=Nc1cc(Cl)ccc1O (stereo not shown) | 11.6%
56 | O=C(NCC1CCCO1)C1CC(=O)N(C2CCCCCC2)C1 (stereo not shown) | 19.3%
57 | O=C(c1cccc(S(=O)(=O)N2CCCC2)c1)c1cccc(S(=O)(=O)N2CCCC2)c1 | -1.06%
58 | COc1ccc(C(=O)/C=C/Nc2cc(C)ccn2)cc1 | -19.7%
59 | O=C(NCc1ccc(F)cc1)C(c1ccccc1)N(C(=O)c1csnn1)c1ccccc1 (stereo not shown) | 6.97%
60 | O=C(Cn1cnc2ccccc2c1=O)Nc1ccc2c(c1)OCO2 | 1.23%
61 | CC(Oc1ccccc1Br)C(=O)N1CCc2ccccc21 (stereo not shown) | -0.0538%
62 | O=c1[nH]c2ccc(Cl)cc2c(-c2ccccc2)c1SC(=S)N1CCOCC1 | -7.24%
63 | CCOCCNC(=O)c1ccccc1C(=O)NCCOCC | -11.1%
64 | COc1cc(CNCCN2CCOCC2)ccc1OCc1cccc(Cl)c1.Cl | -63.2%
65 | Cc1c(Cl)cnc(NC(=O)COC(=O)CCc2nc3ccccc3s2)c1Cl | -4.89%
66 | O=C(Oc1ccccc1C(=S)N1CCOCC1)c1ccccc1 | 7.59%

Row | Structure (SMILES) | hERG current change (%, negative = inhibition) at 10uM
67 | CNc1c(-n2cc(C(=O)OC)c(C(=O)OC)c2C(=O)OC)c(=O)n(C)c(=O)n1C | 14.8%
68 | C[n+]1ccccc1COc1ccc(C(C)(C)C)cc1.Cc1ccc(S(=O)(=O)[O-])cc1 | 2.84%
69 | N#CCCn1cc(CNCc2ccccc2)c(-c2cccc([N+](=O)[O-])c2)n1 | -33.3%
70 | Cc1ccc2cc(C)c3nnc(SCC(=O)c4cccs4)n3c2c1C | -23.1%
71 | CCc1ccc2[nH]c(=O)c(CN(Cc3ccco3)S(=O)(=O)c3ccc4c(c3)OCCO4)cc2c1 | 3.47%
72 | O=C(NCC1CCCO1)c1ccccc1 (stereo not shown) | -1.68%
73 | CC(=O)Nc1ccc(Br)c2ccccc12 | -6.53%
74 | CCC1CCCCN1C(=O)CSc1nnc(-c2ccc3c(c2)OCCO3)o1 (stereo not shown) | -18.3%
75 | CN(CCOc1ccccc1)CC(=O)Nc1cc([N+](=O)[O-])ccc1Cl | 6.74%
76 | C=CCNCCCCOc1ccc(Br)cc1C.O=C(O)C(=O)O | -41%
77 | CCOC(=O)N1CCN(C(=O)CCc2c(C)nc3c(c(C)nn3-c3ccc(C)c(C)c3)c2C)CC1 | -22%
78 | CCOC(=O)c1ccc(-c2cccc(C(F)(F)F)c2)nc1C | 4.81%
79 | Cc1ccc(N2C(=O)N(CC(=O)Nc3cccc([N+](=O)[O-])c3C)C(=O)C2C)cc1 (stereo not shown) | -20.1%
80 | C/C(O)=C\c1nc2ccccc2oc1=O | 11.6%
81 | O=C(N/N=C/c1ccc([N+](=O)[O-])o1)c1cc(-c2ccncc2)nc2ccccc12 | -62.9%
82 | Cc1ccc(S(=O)(=O)N/N=C\c2ccc([N+](=O)[O-])o2)cc1C | 6.17%
83 | COc1cccc(CSc2nnc(-c3ccco3)n2C)c1 | -3.51%
84 | COc1ccc(C(CNC(=O)c2oc3ccc(Cl)cc3c2C)N2CCCCC2)cc1 (stereo not shown) | -25.9%
85 | CCCNC(=O)C(Cc1ccccc1)NC(=O)c1cccc([N+](=O)[O-])c1 (stereo not shown) | 5.7%
86 | CC1CC(C)CN(S(=O)(=O)c2ccc3c(c2)CC(C)N3C(=O)C2CC2)C1 (stereo not shown) | 2.09%
87 | O=C(CSc1nnc(SCc2ccccc2Cl)s1)N/N=C/c1c[nH]c2ccccc12 | 5.11%
88 | COc1cccc(NC(=O)CN(C)C(=O)c2ccc(N3CCCCC3)c([N+](=O)[O-])c2)c1 | -12.9%
